Assay results published in the RNAGym collection of RNA variant scans (doi:10.7554/elife.90254).
Read counts are not given, so values of variants with three or more changes are uncertain.

B1: LINE1-mini (parent)
chain: GGCAGAGCUCAACACAGCGUGGCAAAGUGGCUGUGGCUAGACUGCC

Variants of: B1
Assay: self-cleavage, relative activity (ratio to wild type); higher = more cleavage; in vitro, sequencing; the parent is a self-cleaving ribozyme

| Variant | self-cleavage |
| --- | --- |
| G5U G27A G33A | 0.05 |
| G5U G27U U28G | 0.02 |
| G5U G29A C31G C42A G44U | 0.01 |
| G5U G29C G40A | 0.02 |
| G5U G29U A41U | 0.06 |
| G5U G29U C37A A39C | 0.01 |
| G5U G29U U32A | 0.06 |
| G5U G29U U32G C37A | 0.04 |
| G5U G29U U43A | 0.02 |
| G5U G30A C42A | 1.66 |
| G5U G30A G44C | 0.08 |
| G5U G30C C37A | 0.04 |
| G5U G30C G33C | 0.03 |
| G5U G33U G36U | 0.04 |
| G5U G33U U34C | 0.05 |
| G5U G35A G44U | 0.05 |
| G5U G35C C42A | 0.07 |
| G5U G35C G36A | 0.08 |
| G5U G35C G40U | 0.02 |
| G5U G36A A41U | 0.09 |
| G5U G36A C37U | 0.01 |

| Variant | self-cleavage |
| --- | --- |
| G5U G36A C42A | 0.25 |
| G5U G36A U38G A39C C46A | 0.04 |
| G5U G36C A39G G44C | 0.03 |
| G5U U9A A26G | 0.18 |
| G5U U9A C13A G33C | 0.11 |
| G5U U9A C23A | 0.27 |
| G5U U9A G17C U38A A39G C42G | 0.03 |
| G5U U9A G21C G33A | 0.04 |
| G5U U9A G35A | 0.06 |
| G5U U9C A16U G17A C37G G40A | 0 |
| G5U U9C A39G | 0 |
| G5U U9C C18A | 0.05 |
| G5U U9C C23G A24G A26C | 0.01 |
| G5U U9C C37A | 0.02 |
| G5U U9C U38C | 0 |
| G5U U9G A16U | 0.06 |
| G5U U9G A26G | 0.03 |
| G5U U9G C10A C45G | 0.02 |
| G5U U9G C10G C46G | 0 |
| G5U U9G C10U | 0.07 |
| G5U U9G C13A | 0.05 |

| Variant | self-cleavage |
| --- | --- |
| G5U U9G C18A G21A A25G U28C C31G | 0.03 |
| G5U U9G C31U G33A | 0.13 |
| G5U U9G G17C G33A C37A G44A | 0.01 |
| G5U U9G G29U U34C | 0.01 |
| G5U U9G U43C | 0.02 |
| G5U U20A G27C C37U | 0.02 |
| G5U U20A G40U | 0.01 |
| G5U U20A G40U C42A | 0.1 |
| G5U U20C A24U U32G G40C | 0 |
| G5U U20C G29A | 0.03 |
| G5U U20C U28A G40U U43G | 0 |
| G5U U20C U38G | 0.01 |
| G5U U20G A24U C37U | 0.02 |
| G5U U20G A41U C45G | 0.04 |
| G5U U20G U38C | 0.03 |
| G5U U28A G30A | 0.07 |
| G5U U28G C46U | 0.02 |
| G5U U32C G33C | 0.03 |
| G5U U34A A39U G44A | 0.02 |
| G5U U38C A39G | 0.02 |
| G5U U43A C45U | 0 |

| Variant | self-cleavage |
| --- | --- |
| A6C A11C A14C G29U G36A C42G | 0.01 |
| A6C A11C G21U | 0.02 |
| A6C A11C G27C G35A | 0.03 |
| A6C A11G C13A | 0.01 |
| A6C A11G C13A A14G C23A G36U | 0.01 |
| A6C A11G G17U G19C G44U C45U | 0 |
| A6C A11G G44A | 0.01 |
| A6C A11U C13A A25G | 0.04 |
| A6C A11U C23U | 0.01 |
| A6C A12C G27A C42G | 0.01 |
| A6C A12C G35C | 0 |
| A6C A12G U20G A26U U38G | 0.01 |
| A6C A12U A14C U34C C46U | 0.03 |
| A6C A12U G17A G40U | 0.01 |
| A6C A14C G22U C46U | 0.09 |
| A6C A14U G27U G29A C31G G36C A39C | 0.02 |
| A6C A14U G30C | 0.07 |
| A6C A16G G29U | 0.56 |
| A6C A16G G35C | 0.02 |
| A6C A16U G17C | 0.08 |
| A6C A16U U28G G30C C46U | 1.13 |
